Results from publication PMC12820563, “FoxP3 forms a head-to-head dimer in vivo and stabilizes its multimerization on adjacent microsatellites”.
Some of the results follow.

molecular target: T1, MBP-FoxP1dN (Mus musculus, UniProt P58462 326-579); assay: PD-seq (MBP pull-down with sequencing); 20 mM Tris-HCl pH 7.5, 100 mM NaCl, 1.5 mM MgCl2, 0.4 uM protein, 0.1 uM dsDNA library, 30 min, room temperature, amylose pull-down; high values mean tight binding; settings: protein: recombinant; tags: His6-MBP; chain copies: 2; dsDNA, one strand shown
T1 sequence: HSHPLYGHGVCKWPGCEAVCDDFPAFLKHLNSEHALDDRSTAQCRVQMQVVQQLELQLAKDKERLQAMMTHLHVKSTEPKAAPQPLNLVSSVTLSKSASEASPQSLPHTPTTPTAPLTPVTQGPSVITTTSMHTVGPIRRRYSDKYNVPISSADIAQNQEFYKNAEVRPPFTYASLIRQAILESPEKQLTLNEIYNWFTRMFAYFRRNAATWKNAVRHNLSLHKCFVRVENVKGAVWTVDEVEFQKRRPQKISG
Outline: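 Amylose resin was used to capture complexes formed during 30 min at room temperature in Tris pH 7.5 buffer with NaCl and MgCl2 between 0.4 µM His6-MBP-tagged mouse FoxP3 or FoxP1 fragment lacking the N-terminus, expressed in E. coli, and 0.1 µM Klenow-filled double-stranded degenerate DNA library. After three washes, the DNA was released with proteinase K, barcoded by PCR and sequenced on Illumina. Binding is pooled-replicate reads-per-million enrichment, pull-down over input.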

| Sequence | binding signal |
| --- | --- |
| GATGATTGTTCTCCCAGCTGATGAATTTACCTTGTCGAGTAAACAAATTTTCCTAATCTTTCTGTTCAAGCGCCATCTAC | 1.15 RPM ratio (pull-down/input) |
| GATGATTGTTCTCCCAGCTGATGAATTCCTACTCTCGAGTAAACAAATTTTCCTAATCTTTCTGTTCAAGCGCCATCTAC | 0.856 RPM ratio (pull-down/input) |
| GATGATTGTTCTCCCAGCTGATGAATTTAGGACTTCGAGTAAACAAATTTTCCTAATCTTTCTGTTCAAGCGCCATCTAC | 0.86 RPM ratio (pull-down/input) |
| GATGATTGTTCTCCCAGCTGATGAATTTAGGCGATCGAGTAAACAAATTTTCCTAATCTTTCTGTTCAAGCGCCATCTAC | 0.898 RPM ratio (pull-down/input) |
| GATGATTGTTCTCCCAGCTGATGAATTGTACTGCTCGAGTAAACAAATTTTCCTAATCTTTCTGTTCAAGCGCCATCTAC | 0.956 RPM ratio (pull-down/input) |
| GATGATTGTTCTCCCAGCTGATGAATTCGATCATTCGAGTAAACAAATTTTCCTAATCTTTCTGTTCAAGCGCCATCTAC | 0.949 RPM ratio (pull-down/input) |
| GATGATTGTTCTCCCAGCTGATGAATTAGATTTCTCGAGTAAACAAATTTTCCTAATCTTTCTGTTCAAGCGCCATCTAC | 0.85 RPM ratio (pull-down/input) |
| GATGATTGTTCTCCCAGCTGATGAATTCTCAGGTTCGAGTAAACAAATTTTCCTAATCTTTCTGTTCAAGCGCCATCTAC | 0.765 RPM ratio (pull-down/input) |
| GATGATTGTTCTCCCAGCTGATGAATTCTTAGCATCGAGTAAACAAATTTTCCTAATCTTTCTGTTCAAGCGCCATCTAC | 1.22 RPM ratio (pull-down/input) |
| GATGATTGTTCTCCCAGCTGATGAATTTACGAATTCGAGTAAACAAATTTTCCTAATCTTTCTGTTCAAGCGCCATCTAC | 1.33 RPM ratio (pull-down/input) |
| GATGATTGTTCTCCCAGCTGATGAATTGGTAAGCTCGAGTAAACAAATTTTCCTAATCTTTCTGTTCAAGCGCCATCTAC | 0.946 RPM ratio (pull-down/input) |
| GATGATTGTTCTCCCAGCTGATGAATTAGTACGCTCGAGTAAACAAATTTTCCTAATCTTTCTGTTCAAGCGCCATCTAC | 1.02 RPM ratio (pull-down/input) |
| GATGATTGTTCTCCCAGCTGATGAATTCGCCCTTTCGAGTAAACAAATTTTCCTAATCTTTCTGTTCAAGCGCCATCTAC | 0.83 RPM ratio (pull-down/input) |
| GATGATTGTTCTCCCAGCTGATGAATTTGTACAATCGAGTAAACAAATTTTCCTAATCTTTCTGTTCAAGCGCCATCTAC | 1.46 RPM ratio (pull-down/input) |
| GATGATTGTTCTCCCAGCTGATGAATTCGTAAACTCGAGTAAACAAATTTTCCTAATCTTTCTGTTCAAGCGCCATCTAC | 1.27 RPM ratio (pull-down/input) |
| GATGATTGTTCTCCCAGCTGATGAATTCCCAGAGTCGAGTAAACAAATTTTCCTAATCTTTCTGTTCAAGCGCCATCTAC | 0.738 RPM ratio (pull-down/input) |
| GATGATTGTTCTCCCAGCTGATGAATTAATACACTCGAGTAAACAAATTTTCCTAATCTTTCTGTTCAAGCGCCATCTAC | 1.26 RPM ratio (pull-down/input) |
| GATGATTGTTCTCCCAGCTGATGAATTCACACTTTCGAGTAAACAAATTTTCCTAATCTTTCTGTTCAAGCGCCATCTAC | 0.928 RPM ratio (pull-down/input) |
| GATGATTGTTCTCCCAGCTGATGAATTGCGGGATTCGAGTAAACAAATTTTCCTAATCTTTCTGTTCAAGCGCCATCTAC | 1.03 RPM ratio (pull-down/input) |
| GATGATTGTTCTCCCAGCTGATGAATTTGTCGCATCGAGTAAACAAATTTTCCTAATCTTTCTGTTCAAGCGCCATCTAC | 1.28 RPM ratio (pull-down/input) |
| GATGATTGTTCTCCCAGCTGATGAATTCAGTCTCTCGAGTAAACAAATTTTCCTAATCTTTCTGTTCAAGCGCCATCTAC | 0.769 RPM ratio (pull-down/input) |

| Sequence | binding signal |
| --- | --- |
| GATGATTGTTCTCCCAGCTGATGAATTATTAGTTTCGAGTAAACAAATTTTCCTAATCTTTCTGTTCAAGCGCCATCTAC | 1.33 RPM ratio (pull-down/input) |
| GATGATTGTTCTCCCAGCTGATGAATTCCCGTGCTCGAGTAAACAAATTTTCCTAATCTTTCTGTTCAAGCGCCATCTAC | 0.768 RPM ratio (pull-down/input) |
| GATGATTGTTCTCCCAGCTGATGAATTCGACCCCTCGAGTAAACAAATTTTCCTAATCTTTCTGTTCAAGCGCCATCTAC | 0.751 RPM ratio (pull-down/input) |
| GATGATTGTTCTCCCAGCTGATGAATTTTTGCAGTCGAGTAAACAAATTTTCCTAATCTTTCTGTTCAAGCGCCATCTAC | 1.02 RPM ratio (pull-down/input) |
| GATGATTGTTCTCCCAGCTGATGAATTTGTATCGTCGAGTAAACAAATTTTCCTAATCTTTCTGTTCAAGCGCCATCTAC | 1.22 RPM ratio (pull-down/input) |
| GATGATTGTTCTCCCAGCTGATGAATTGACGCAATCGAGTAAACAAATTTTCCTAATCTTTCTGTTCAAGCGCCATCTAC | 1.58 RPM ratio (pull-down/input) |
| GATGATTGTTCTCCCAGCTGATGAATTTAAAGCATCGAGTAAACAAATTTTCCTAATCTTTCTGTTCAAGCGCCATCTAC | 1.1 RPM ratio (pull-down/input) |
| GATGATTGTTCTCCCAGCTGATGAATTCGTCACCTCGAGTAAACAAATTTTCCTAATCTTTCTGTTCAAGCGCCATCTAC | 0.867 RPM ratio (pull-down/input) |
| GATGATTGTTCTCCCAGCTGATGAATTCCCATGATCGAGTAAACAAATTTTCCTAATCTTTCTGTTCAAGCGCCATCTAC | 0.884 RPM ratio (pull-down/input) |
| GATGATTGTTCTCCCAGCTGATGAATTGCGAAGATCGAGTAAACAAATTTTCCTAATCTTTCTGTTCAAGCGCCATCTAC | 0.983 RPM ratio (pull-down/input) |
| GATGATTGTTCTCCCAGCTGATGAATTTGTGGCTTCGAGTAAACAAATTTTCCTAATCTTTCTGTTCAAGCGCCATCTAC | 1.07 RPM ratio (pull-down/input) |
| GATGATTGTTCTCCCAGCTGATGAATTGACAGGGTCGAGTAAACAAATTTTCCTAATCTTTCTGTTCAAGCGCCATCTAC | 1.05 RPM ratio (pull-down/input) |
| GATGATTGTTCTCCCAGCTGATGAATTTCCCTAATCGAGTAAACAAATTTTCCTAATCTTTCTGTTCAAGCGCCATCTAC | 0.957 RPM ratio (pull-down/input) |
| GATGATTGTTCTCCCAGCTGATGAATTTTCGACGTCGAGTAAACAAATTTTCCTAATCTTTCTGTTCAAGCGCCATCTAC | 0.942 RPM ratio (pull-down/input) |
| GATGATTGTTCTCCCAGCTGATGAATTAGGCTCATCGAGTAAACAAATTTTCCTAATCTTTCTGTTCAAGCGCCATCTAC | 0.944 RPM ratio (pull-down/input) |
| GATGATTGTTCTCCCAGCTGATGAATTGCCACGATCGAGTAAACAAATTTTCCTAATCTTTCTGTTCAAGCGCCATCTAC | 0.945 RPM ratio (pull-down/input) |
| GATGATTGTTCTCCCAGCTGATGAATTGTGACTTTCGAGTAAACAAATTTTCCTAATCTTTCTGTTCAAGCGCCATCTAC | 1.19 RPM ratio (pull-down/input) |
| GATGATTGTTCTCCCAGCTGATGAATTTTCAGGGTCGAGTAAACAAATTTTCCTAATCTTTCTGTTCAAGCGCCATCTAC | 0.809 RPM ratio (pull-down/input) |
| GATGATTGTTCTCCCAGCTGATGAATTCTTCTCGTCGAGTAAACAAATTTTCCTAATCTTTCTGTTCAAGCGCCATCTAC | 0.886 RPM ratio (pull-down/input) |
| GATGATTGTTCTCCCAGCTGATGAATTTCATTCCTCGAGTAAACAAATTTTCCTAATCTTTCTGTTCAAGCGCCATCTAC | 0.839 RPM ratio (pull-down/input) |
| GATGATTGTTCTCCCAGCTGATGAATTCTCTAAGTCGAGTAAACAAATTTTCCTAATCTTTCTGTTCAAGCGCCATCTAC | 0.864 RPM ratio (pull-down/input) |

| Sequence | binding signal |
| --- | --- |
| GATGATTGTTCTCCCAGCTGATGAATTCGAGCCATCGAGTAAACAAATTTTCCTAATCTTTCTGTTCAAGCGCCATCTAC | 0.845 RPM ratio (pull-down/input) |
| GATGATTGTTCTCCCAGCTGATGAATTCTAACCGTCGAGTAAACAAATTTTCCTAATCTTTCTGTTCAAGCGCCATCTAC | 0.872 RPM ratio (pull-down/input) |
| GATGATTGTTCTCCCAGCTGATGAATTCAGCATTTCGAGTAAACAAATTTTCCTAATCTTTCTGTTCAAGCGCCATCTAC | 1.05 RPM ratio (pull-down/input) |
| GATGATTGTTCTCCCAGCTGATGAATTTGAGGTTTCGAGTAAACAAATTTTCCTAATCTTTCTGTTCAAGCGCCATCTAC | 0.755 RPM ratio (pull-down/input) |
| GATGATTGTTCTCCCAGCTGATGAATTCTAGTTGTCGAGTAAACAAATTTTCCTAATCTTTCTGTTCAAGCGCCATCTAC | 1.47 RPM ratio (pull-down/input) |
| GATGATTGTTCTCCCAGCTGATGAATTAAGTTAGTCGAGTAAACAAATTTTCCTAATCTTTCTGTTCAAGCGCCATCTAC | 0.966 RPM ratio (pull-down/input) |
| GATGATTGTTCTCCCAGCTGATGAATTCGAATGATCGAGTAAACAAATTTTCCTAATCTTTCTGTTCAAGCGCCATCTAC | 0.904 RPM ratio (pull-down/input) |
| GATGATTGTTCTCCCAGCTGATGAATTCAACTATTCGAGTAAACAAATTTTCCTAATCTTTCTGTTCAAGCGCCATCTAC | 0.958 RPM ratio (pull-down/input) |
| GATGATTGTTCTCCCAGCTGATGAATTAGAGCGATCGAGTAAACAAATTTTCCTAATCTTTCTGTTCAAGCGCCATCTAC | 0.889 RPM ratio (pull-down/input) |
| GATGATTGTTCTCCCAGCTGATGAATTTGATTTCTCGAGTAAACAAATTTTCCTAATCTTTCTGTTCAAGCGCCATCTAC | 0.937 RPM ratio (pull-down/input) |
| GATGATTGTTCTCCCAGCTGATGAATTGGGGGTGTCGAGTAAACAAATTTTCCTAATCTTTCTGTTCAAGCGCCATCTAC | 0.816 RPM ratio (pull-down/input) |
| GATGATTGTTCTCCCAGCTGATGAATTCCTGGCGTCGAGTAAACAAATTTTCCTAATCTTTCTGTTCAAGCGCCATCTAC | 0.824 RPM ratio (pull-down/input) |
| GATGATTGTTCTCCCAGCTGATGAATTCAGATGATCGAGTAAACAAATTTTCCTAATCTTTCTGTTCAAGCGCCATCTAC | 0.864 RPM ratio (pull-down/input) |
| GATGATTGTTCTCCCAGCTGATGAATTAATTTTGTCGAGTAAACAAATTTTCCTAATCTTTCTGTTCAAGCGCCATCTAC | 0.994 RPM ratio (pull-down/input) |
| GATGATTGTTCTCCCAGCTGATGAATTTGCGACCTCGAGTAAACAAATTTTCCTAATCTTTCTGTTCAAGCGCCATCTAC | 0.925 RPM ratio (pull-down/input) |
| GATGATTGTTCTCCCAGCTGATGAATTAAGGGAATCGAGTAAACAAATTTTCCTAATCTTTCTGTTCAAGCGCCATCTAC | 0.93 RPM ratio (pull-down/input) |
| GATGATTGTTCTCCCAGCTGATGAATTATTAGTGTCGAGTAAACAAATTTTCCTAATCTTTCTGTTCAAGCGCCATCTAC | 1.3 RPM ratio (pull-down/input) |
| GATGATTGTTCTCCCAGCTGATGAATTCGAGTAGTCGAGTAAACAAATTTTCCTAATCTTTCTGTTCAAGCGCCATCTAC | 0.869 RPM ratio (pull-down/input) |
| GATGATTGTTCTCCCAGCTGATGAATTCTGCATATCGAGTAAACAAATTTTCCTAATCTTTCTGTTCAAGCGCCATCTAC | 0.96 RPM ratio (pull-down/input) |
| GATGATTGTTCTCCCAGCTGATGAATTGGATATCTCGAGTAAACAAATTTTCCTAATCTTTCTGTTCAAGCGCCATCTAC | 0.793 RPM ratio (pull-down/input) |
| GATGATTGTTCTCCCAGCTGATGAATTATCGAACTCGAGTAAACAAATTTTCCTAATCTTTCTGTTCAAGCGCCATCTAC | 0.976 RPM ratio (pull-down/input) |
